Measured values published in patent US9757408B2 (Hayashibara Co., Ltd., priority 2010, dated 2017).

Legend:
[1] = system: IL-6 production in RAW264.7 cells; experiment: IL-6 production from RAW264.7 cells, LPS (Experiment 4); conditions: LPS 2 μg/mL
[2] = system: TNF-α production in RAW264.7 cells; experiment: TNF-α production from RAW264.7 cells, LPS (Experiment 4); conditions: for TNF-α Concentration: LPS 2 μg/mL; for IC50: Mus musculus, RAW264.7, read-out: concentration required for attaining 50% inhibition (IC50) of the TNF-α concentration in a control
RAW264.7 cells = conditions: mouse, 1 day

Compound | IL-6 Concentration ([1]; test substance 1 μM) | IL-6 Concentration ([1]; test substance 3 μM) | IL-6 Concentration ([1]; test substance 6 μM) | IL-6 Concentration ([1]; test substance 12 μM) | TNF-α Concentration ([2]; test substance 1 μM) | TNF-α Concentration ([2]; test substance 3 μM) | TNF-α Concentration ([2]; test substance 6 μM) | TNF-α Concentration ([2]; test substance 12 μM) | IC50 [2] | Cell viability (RAW264.7 cells; 1 μM) | Cell viability (RAW264.7 cells; 3 μM) | Cell viability (RAW264.7 cells; 6 μM) | Cell viability (RAW264.7 cells; 12 μM) | other results
Nc1ncnc2c1ncn2[C@@H]1O[C@H](CO)[C@@H](O)[C@H]1O [AN, adenosine, reference compound] | 3062 pg/mL | 2862 pg/mL | 2768 pg/mL | 2672* pg/mL | 634.1 pg/mL | 460.2 pg/mL | 398.7 pg/mL | 404.5 pg/mL | 22 µM | 100% | 100% | 100% | 100% | IL-6 Concentration ([1]; test substance 24 μM): 2624* pg/mL; IL-6 Concentration ([1]; test substance 32 μM): 2867* pg/mL; IL-6 Concentration ([1]; test substance 40 μM): 2435* pg/mL; TNF-α Concentration ([2]; test substance 24 μM): 346.8* pg/mL; TNF-α Concentration ([2]; test substance 32 μM): 308.5* pg/mL; TNF-α Concentration ([2]; test substance 40 μM): 193.1* pg/mL; Cell viability (RAW264.7 cells; 24 μM): 99%; Cell viability (RAW264.7 cells; 32 μM): 98%; Cell viability (RAW264.7 cells; 40 μM): 97%
Nc1c2ncn([C@@H]3O[C@H](CO)[C@@H](O)[C@H]3O)c2nc[n+]1[O-] [ANO, adenosine N1-oxide] | 2645* pg/mL | 2088* pg/mL | 1739* pg/mL | 1103* pg/mL | 333.2* pg/mL | 259.1* pg/mL | 270.4* pg/mL | 162.3* pg/mL | 1.2 µM | 100% | 100% | 100% | 100% | IL-6 Concentration ([1]; test substance 0.1 μM): 3156 pg/mL; IL-6 Concentration ([1]; test substance 0.3 μM): 2993 pg/mL; IL-6 Concentration ([1]; test substance 0.6 μM): 2688* pg/mL; TNF-α Concentration ([2]; test substance 0.1 μM): 648.7 pg/mL; TNF-α Concentration ([2]; test substance 0.3 μM): 543.3 pg/mL; TNF-α Concentration ([2]; test substance 0.6 μM): 361.6* pg/mL; Cell viability (RAW264.7 cells; 0.1 μM): 100%; Cell viability (RAW264.7 cells; 0.3 μM): 100%; Cell viability (RAW264.7 cells; 0.6 μM): 100%

Where two headings read alike, the source gives them in different places. Marks after values point to notes of the source that are not given here.
